About 2,200 (0.71%) of roughly 310,000 compounds showed an effect of 50% or more. Effects have a minus sign here. The list shows a part of the results.
target: human ether-à-go-go-related gene (hERG) potassium channel (human, UniProt Q12809); assay: primary screen, population patch clamp on CHO cells stably expressing hERG
Sequence (Q12809 whole entry, looked up): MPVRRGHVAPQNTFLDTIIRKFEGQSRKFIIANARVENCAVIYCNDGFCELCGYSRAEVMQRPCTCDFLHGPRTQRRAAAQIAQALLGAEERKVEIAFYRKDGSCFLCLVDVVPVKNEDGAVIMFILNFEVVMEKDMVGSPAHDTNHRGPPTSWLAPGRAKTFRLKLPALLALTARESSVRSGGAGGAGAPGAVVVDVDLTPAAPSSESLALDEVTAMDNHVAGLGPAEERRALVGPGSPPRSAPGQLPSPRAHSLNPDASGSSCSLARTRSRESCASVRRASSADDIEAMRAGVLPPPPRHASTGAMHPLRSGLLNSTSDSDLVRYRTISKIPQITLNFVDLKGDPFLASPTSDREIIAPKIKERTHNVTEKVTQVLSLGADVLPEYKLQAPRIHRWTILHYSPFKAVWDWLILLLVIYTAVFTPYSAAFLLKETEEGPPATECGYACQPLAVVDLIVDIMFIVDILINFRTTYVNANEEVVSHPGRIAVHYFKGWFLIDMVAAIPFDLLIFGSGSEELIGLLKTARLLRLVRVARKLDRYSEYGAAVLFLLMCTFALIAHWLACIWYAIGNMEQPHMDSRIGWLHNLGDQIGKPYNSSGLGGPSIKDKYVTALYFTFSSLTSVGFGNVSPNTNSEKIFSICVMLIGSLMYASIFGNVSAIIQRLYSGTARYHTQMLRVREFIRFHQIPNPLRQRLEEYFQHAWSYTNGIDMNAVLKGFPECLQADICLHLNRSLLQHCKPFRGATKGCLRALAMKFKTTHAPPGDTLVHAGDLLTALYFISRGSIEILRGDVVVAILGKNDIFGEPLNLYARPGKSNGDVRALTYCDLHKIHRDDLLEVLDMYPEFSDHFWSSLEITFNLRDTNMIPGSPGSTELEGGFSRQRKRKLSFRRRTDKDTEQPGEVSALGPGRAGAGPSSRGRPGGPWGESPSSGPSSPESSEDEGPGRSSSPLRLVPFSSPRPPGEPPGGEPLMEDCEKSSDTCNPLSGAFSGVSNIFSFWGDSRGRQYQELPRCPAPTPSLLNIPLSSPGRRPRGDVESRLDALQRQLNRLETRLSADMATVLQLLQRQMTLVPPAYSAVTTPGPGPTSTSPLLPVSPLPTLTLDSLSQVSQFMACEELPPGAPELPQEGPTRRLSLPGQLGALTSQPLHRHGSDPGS

| SMILES | hERG current change (%, negative = inhibition) at 1uM [%] |
| --- | --- |
| O=C(NS(=O)(=O)c1ccccc1)c1cccc(Br)c1 | 14.9 |
| CCCCSc1nc2c(cnn2-c2ccc(C)c(C)c2)c(=O)[nH]1 | 5.85 |
| CCOC(=O)/C(=N\Nc1ccccc1Cl)N(C)C1CCCCC1 | 7.91 |
| CN(CC(=O)Nc1ccc(F)cc1)C(=O)COc1ccc([N+](=O)[O-])cc1Cl | -12 |
| CCN=C1SC(C(=O)Nc2cccc(Br)c2)CC(=O)N1CC (centres unmarked) | 11.2 |
| COc1cccc(NC(=O)N2CCCC2C(=O)NC(C)C)c1 (centres unmarked) | 14.5 |
| COc1ccc(N(C(=O)COc2cccc(C)c2)S(=O)(=O)c2ccc(C)cc2)cc1 | 4.79 |
| CCOC(=O)C1C(=O)NC(N2CCc3ccccc32)=NC1c1ccccc1 (centres unmarked) | 5.25 |
| Cc1ccc(-c2nnc(Nc3ccc(OCC(N)=O)cc3)c3ccccc23)cc1S(N)(=O)=O | 2.73 |
| CCOC(=O)CC1Sc2ccccc2NC1=O (centres unmarked) | -7.75 |
| Cc1ccc(S(=O)(=O)CC(O)COc2ccccc2C#N)cc1 (centres unmarked) | 13.7 |
| CN(C)CCNc1ncnc2oc(-c3ccccc3)c(-c3ccccc3)c12 | -10.4 |
| Nc1nnc(CCOc2ccccc2Cl)s1 | 9.1 |
| CCOCCCNC(=O)c1c(N)n(-c2ccc3c(c2)OCO3)c2nc3ccccc3nc12 | 4.66 |
| Cc1cc(NC(=O)CSCC(=O)N(C)Cc2c(F)cccc2Cl)no1 | 12.7 |
| CC1=C(n2nnc3ccccc32)C(c2ccccc2)C(C#N)=C(N)O1 (centres unmarked) | 3.29 |
| CCOC(=O)Cn1cc(/C=N/N2C(=O)C3C4C=CC(C4)C3C2=O)c2ccccc21 (centres unmarked) | 1.5 |
| Cc1cc2c(ncn2C)c(NS(=O)(=O)c2ccc(Cl)cc2)c1C | 9.08 |
| Cc1cc(C(=O)Nc2ccccc2C)on1 | 7.46 |
| O=C(NNS(=O)(=O)c1ccc(F)cc1)c1ccc([N+](=O)[O-])cc1Cl | 9.93 |
| COc1cccc(N2C(=O)CC(=O)NC2=O)c1 | -1.31 |
| Cc1cc(C)c2[nH]c3nc(SCC(=O)O)nnc3c2c1 | 16.7 |
| O=C(c1cc2cc(Cl)cc(Cl)c2oc1=O)N1CCOCC1 | 9.66 |
| Cc1cccc(OCc2nnc(SCC(=O)NCCc3ccccc3)o2)c1 | 7.5 |

| SMILES | hERG current change (%, negative = inhibition) at 1uM [%] |
| --- | --- |
| Nc1nnc(CSCc2cccc(Br)c2)s1 | 4.42 |
| COC(=O)c1ccccc1NC(=O)c1cc(-c2ccc(O)cc2)on1 | 5.09 |
| NC(=O)N/N=C/c1ccc([N+](=O)[O-])o1 | 8.71 |
| Cc1cccc(NC(=O)CN(C)S(=O)(=O)c2ccc3c(c2)n(C)c(=O)c(=O)n3C)c1C | 2.02 |
| CCN(C#N)c1nc(N(C)C)nc(N(C)C)n1 | -1.97 |
| CCn1c(SCC(=O)Nc2cc(C)on2)nc2c([nH]c3ccccc32)c1=O | 11.6 |
| O=C(CN1CCSCC1)c1c[nH]c2ccccc12 | 7.98 |
| COc1ccc(-n2nc(C)cc2N)cc1 | 7.31 |
| Cc1ccc(CNC(=O)c2sc3nc4c(c(C(F)(F)F)c3c2N)CCC4)cc1 | -4.66 |
| NC1=NC2(CCCC2)N=C(Nc2ccccc2)N1 | 16.2 |
| O=C(COc1ccc(S(=O)(=O)NC2CCCCC2)cc1)NC1CCCCC1 | -21.7 |
| COc1cc(C(=O)NS(=O)(=O)c2ccccc2C)ccc1Cc1cn(C)c2ccc(NC(=O)OC3CCCC3)cc12 | 2.86 |
| Cc1c(OCC(=O)N2CCC(C(=O)O)CC2)ccc2c1oc(=O)c1ccccc12 | 6.5 |
| O=C(C1=C(O)/C(=C/c2ccc(O)cc2)CCC1)C(F)(F)F | 7.81 |
| CN(C)CCNC(=S)Nc1ccc(Br)cc1 | 12.3 |
| O=C(CSc1nnnn1C1CCCC1)Nc1cccc(NC(=O)c2ccco2)c1 | -17.9 |
| O=C(NCc1ccc(C(F)(F)F)cc1)C1CC(c2cccc(F)c2)=NO1 (centres unmarked) | 14.8 |
| COc1ccccc1CNC(=O)c1csc(Cc2ccc(Cl)cc2)n1 | 5 |
| CCOc1cccc(OCCOCCN(C)C)c1.O=C(O)C(=O)O | 5.73 |
| COC(=O)Cn1c2ccccc2c2nc3ccccc3nc21 | 16.1 |
| O=C(Cn1cnc2c(cnn2-c2ccc(F)cc2)c1=O)NCc1ccco1 | 7.09 |
| O=C(COc1ccc(F)cc1)Nc1ccccc1N1CCOCC1 | 0.229 |
| COc1ccc(CCN2CC(C(=O)N3CCC(O)(c4ccccc4)CC3)CCC2=O)cc1 (centres unmarked) | 8.16 |

Reference: publication PMC4336329 (PLoS ONE, 2015)
